# The list shows a part of the results. Cleavage of a single-stranded DNA pool by Rep nickase domains was read by sequencing for 1 h at 37 °C with 3 µM enzyme; only the middle of the 90-letter strands is printed. Uncut reads are compared with the no-enzyme pool on a log2 scale; strong cutting gives strongly negative numbers. There is no active / inactive call. The scaling is to total reads; uncut strands gain when others are lost, and binding without cutting may add a little.
# Tests used:
# Experiment in all cases: uncleaved DNA left, log2 of reads against the no-enzyme library (log2 ratio); higher = less cleavage (more negative = more Rep cleavage of the k-mer); sequences stand for … in CTCGTCCG…ACCGGAGA
# [1] = tested on: T1, Rep nickase domain of Muscovy duck circovirus
# T1 sequence (Rep 1-111, printed without the tag): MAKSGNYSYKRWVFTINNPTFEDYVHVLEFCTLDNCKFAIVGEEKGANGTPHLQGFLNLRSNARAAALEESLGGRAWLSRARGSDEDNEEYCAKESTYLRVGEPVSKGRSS
# Procedure: (§1)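 A pool of 90-nt single-stranded DNAs with seven random bases just before the constant AC of the nick site (name = the seven bases) was cut by 3 µM recombinant His6-SUMO-tagged Rep nickase domain (300 nM DNA, 50 mM HEPES pH 8.0, 50 mM NaCl, 1 mM MnCl2, 1 h, 37 °C, three replicates). Uncut DNA was amplified and sequenced.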
# [2] = tested on: T2, Rep nickase domain of banana bunchy top virus
# T2 sequence (Rep 1-94, printed without the tag): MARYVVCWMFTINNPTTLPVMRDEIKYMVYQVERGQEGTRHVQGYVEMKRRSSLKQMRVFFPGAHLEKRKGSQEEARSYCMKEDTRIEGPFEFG
# Procedure: as §1
# [3] = tested on: T3, Rep nickase domain of cabbage leaf curl virus
# T3 sequence (Rep 1-116, printed without the tag): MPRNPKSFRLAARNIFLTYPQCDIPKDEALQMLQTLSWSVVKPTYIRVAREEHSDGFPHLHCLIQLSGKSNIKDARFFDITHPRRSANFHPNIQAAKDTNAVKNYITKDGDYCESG
# Procedure: as §1
# [4] = tested on: T4, Rep nickase domain of chickpea chlorotic dwarf virus
# T4 sequence (Rep 1-124, printed without the tag): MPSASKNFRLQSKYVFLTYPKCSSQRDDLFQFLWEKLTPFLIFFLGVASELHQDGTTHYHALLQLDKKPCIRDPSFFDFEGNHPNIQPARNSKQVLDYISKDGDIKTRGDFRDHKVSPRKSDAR
# Procedure: as §1
# [5] = tested on: T5, Rep nickase domain of faba bean necrotic yellows virus
# T5 sequence (Rep 1-98, printed without the tag): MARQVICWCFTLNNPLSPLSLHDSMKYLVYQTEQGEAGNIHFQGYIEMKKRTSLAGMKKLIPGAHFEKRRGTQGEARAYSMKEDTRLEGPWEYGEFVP
# Procedure: as §1
# [6] = tested on: T6, Rep nickase domain of maize striate mosaic virus
# T6 sequence (Rep 1-117, printed without the tag): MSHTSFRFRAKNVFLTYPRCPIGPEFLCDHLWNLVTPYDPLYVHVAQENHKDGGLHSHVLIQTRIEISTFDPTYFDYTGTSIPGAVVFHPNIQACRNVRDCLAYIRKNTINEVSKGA
# Procedure: as §1
# [7] = tested on: T7, Rep nickase domain of porcine circovirus 2
# T7 sequence (Rep 2-116, printed without the tag): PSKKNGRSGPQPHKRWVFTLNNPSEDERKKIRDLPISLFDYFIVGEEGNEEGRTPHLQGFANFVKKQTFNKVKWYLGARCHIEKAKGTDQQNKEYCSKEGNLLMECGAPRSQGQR
# Procedure: as §1
# [8] = tested on: T8, Rep nickase domain of tomato golden mosaic virus
# T8 sequence (Rep 1-124, printed without the tag): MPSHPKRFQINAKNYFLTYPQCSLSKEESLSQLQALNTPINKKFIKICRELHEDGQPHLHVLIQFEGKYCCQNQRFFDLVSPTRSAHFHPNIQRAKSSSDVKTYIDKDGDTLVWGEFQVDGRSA
# Procedure: as §1
# [9] = tested on: T9, Rep nickase domain of tomato yellow leaf curl virus
# T9 sequence (Rep 1-136, printed without the tag): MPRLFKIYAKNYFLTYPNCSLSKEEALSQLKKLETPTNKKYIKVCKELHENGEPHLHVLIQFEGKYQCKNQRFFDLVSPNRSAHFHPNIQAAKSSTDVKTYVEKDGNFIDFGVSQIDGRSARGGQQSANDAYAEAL
# Procedure: as §1
# [10] = tested on: T10, Rep nickase domain of wheat dwarf virus
# T10 sequence (Rep 1-137, printed without the tag): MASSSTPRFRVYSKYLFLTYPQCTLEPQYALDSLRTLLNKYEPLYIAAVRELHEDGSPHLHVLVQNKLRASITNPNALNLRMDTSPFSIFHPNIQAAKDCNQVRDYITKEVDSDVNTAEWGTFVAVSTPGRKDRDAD
# Procedure: as §1
Sequence,uncleaved DNA left (log2) [1],uncleaved DNA left (log2) [2],uncleaved DNA left (log2) [3],uncleaved DNA left (log2) [4],uncleaved DNA left (log2) [5],uncleaved DNA left (log2) [6],uncleaved DNA left (log2) [7],uncleaved DNA left (log2) [8],uncleaved DNA left (log2) [9],uncleaved DNA left (log2) [10]
ATACTAC,-2.64,-0.101,-0.684,-2.75,-0.0359,-1.09,-2.06,-0.249,-0.0399,-0.172
GGGATCC,0.112,0.0667,0.826,1.93,0.0757,2.14,0.351,0.0512,0.134,0.221
GGTGCCA,0.13,0.0662,0.608,1.34,0.0497,1.86,0.172,-0.0124,0.065,0.13
CTTAACG,-0.088,-0.00536,-0.764,-0.269,0.133,-1.13,0.216,0.125,0.0441,-0.0299
CTGTTCG,-0.0255,-0.19,-0.865,0.244,0.0144,-0.988,0.0321,-0.124,-0.0639,-0.135
ATGGGGT,0.0637,-0.0998,0.201,1.31,-0.0147,1.75,0.147,0.00794,-0.202,-0.13
CTGATCG,0.0283,-0.158,-0.294,-0.208,-0.161,-0.649,-0.0785,-0.141,-0.149,-0.0947
CCGCCGT,-0.164,-0.243,-0.537,-0.765,-0.0376,-0.748,-0.0968,-0.167,-0.275,-0.297
AGGAATG,-0.128,-0.122,-0.0198,0.561,-0.168,1.35,-0.00278,-0.0932,-0.186,-0.043
TCTTTAC,0.173,0.012,0.0881,-1.58,0.0488,-0.318,-0.0014,0.107,0.0491,0.158
TTGACGA,0.0105,-0.051,-0.237,-0.372,-0.0551,-0.871,0.00275,-0.0367,0.0298,0.03
GGTCCCT,-0.0213,0.0587,0.305,0.65,0.00903,1.63,-0.0475,-0.0252,0.079,0.079
TCCCCGG,-0.12,-0.107,0.527,1.69,-0.0853,2.02,0.00299,0.0516,-0.11,-0.0114
CCGGTAC,0.00998,-0.0311,0.235,0.275,-0.0924,1.05,0.139,0.0381,-0.0517,0.0643
AGTGTGC,0.0347,0.0748,-0.341,-0.36,0.105,-0.758,0.238,0.051,0.0606,0.0344
TCATCTC,-0.205,-0.0991,-0.309,-0.648,-0.247,-0.109,-0.191,-0.197,-0.211,-0.104
TAACATT,-0.0458,0.0621,-3.62,-2.92,-0.18,-0.911,-1.11,-1.69,-0.0041,-2.91
GCATGAG,0.0907,-0.00367,-0.51,0.185,0.149,-0.73,0.165,0.0239,0.109,-0.0002
CAAGCGC,0.0634,0.038,-0.641,-0.384,0.0283,-0.866,0.154,0.0771,0.107,0.0385
GTCTTTA,-0.0606,-0.00318,0.26,0.775,-0.0229,1.66,-0.0583,0.069,-0.0784,-0.0602
AACGCCG,-0.0377,0.078,-0.647,-0.313,0.0933,-0.85,0.181,-0.0146,0.0224,-0.0411
GTGTTAA,0.171,0.195,0.409,0.915,0.00265,1.89,0.155,0.159,0.0969,0.179
TGTTAAG,-0.00806,0.0723,-0.714,-0.489,0.0644,-1.1,0.16,-0.0115,0.147,-0.00783
TATTGCA,-1.11,-0.136,-0.642,-0.566,0.0593,-0.648,-0.419,-0.0215,0.104,-0.0596
CTTACCT,-0.106,-0.101,-0.371,-2.63,-0.0652,-0.704,-1.01,-0.0701,0.0637,-0.0134
CCAAATC,-0.00797,0.00364,0.00491,-0.0242,-0.0504,-0.614,0.0928,0.0453,0.0387,-0.00729
ATTTTTC,0.0377,0.00333,0.0512,-0.171,0.0643,-0.827,-0.0206,0.0924,0.00925,0.0263
TCGATAG,0.0971,-0.0122,-0.164,-0.016,0.0259,-0.619,0.236,0.108,0.0307,-0.0193
TCCCAGC,0.0234,-0.0776,-0.226,-0.565,-0.0115,-0.845,-0.00979,0.0197,-0.187,-0.181

# Source: the supplement of paper PMC7826260
